According to PubChem BioAssay AID2546 (National Center for Advancing Translational Sciences (NCATS), 2010):
The whole screen tested about 310,000 compounds, of which about 11,000 (3.5%) were called active. Inconclusive means that the source gave no clear call. Such entries were picked first, then a sample of the others. The call rests on the fitted dose curve; in most records, active means well fitted inhibition curve with a large enough effect; inconclusive means small, poorly fitted or top-dose-only effect, or effect the other way; inactive means flat fitted curve, though single readings scatter. Potencies of inconclusive entries are left out as doubtful fits.
On the % scale 0 is the no-effect control and ±100 the full control effect; potency means the concentration at half of the fitted maximal effect; tags describe the fitted curve by direction and shape.

Test: VP16 counterscreen qHTS for inhibitors of ROR gamma transcriptional activity;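 further: Gal4-VP16 expression switched on by copper sulfate through the metallothionein promoter; nearly all actives have a fitted effect of over 50% in size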
Conditions: Drosophila S2 Gal4-VP16 UAS-luciferase, luminescence, 20 h; activity, negative = inhibition: at 53.6 µM (top of the series)
For `O=C(O)COc1ccc(Oc2ccccc2)cc1`, the Potency was active: 12.6 µM. For `COc1ccc(Nc2nc(N3CCCCC3)c3ccccc3n2)cc1`, the Potency was active: 7.08 µM. With `COc1ccc(-n2nc(C(=O)NCC(=O)N3CCN(c4ccccc4F)CC3)c3ccccc3c2=O)cc1OC` the “activity, negative = inhibition” value was inactive: 2.43%. In the case of `Cc1ccccc1C(=O)Nc1ccccc1C(=O)N1CCC(C)CC1`, the “activity, negative = inhibition” value is reported as inactive: 4.19%. With `CCS(=O)(=O)Nc1ccc(Cc2ccc(NS(=O)(=O)CC)cc2)cc1` the Potency was inconclusive [inhibitor, single point]. With `CSc1nnc2c(n1)OC(C1CC=C(C)CC1)Nc1ccccc1-2` (centres undefined) the “activity, negative = inhibition” value was inactive: -6.36%. In the case of `COc1ccc(C(=O)NC(=S)N2CCN(c3ccccc3OC)CC2)cc1OC`, the Potency is reported as active: 5.01 µM. For `CCc1nnc(NC(=O)c2ccc(Cl)c(S(=O)(=O)N3CCc4ccccc43)c2)s1`, the Potency was inconclusive [inhibitor, single point]. With `Cc1ccc(-c2nc3n(n2)Cc2ccccc2-3)cc1` the Potency was active: 10 µM. In the case of `C=CCNC(=O)c1ccc2c3n(nc2c1)-c1ccccc1CO3`, the Potency is reported as inconclusive [inhibitor, partial curve, poor fit]. For `COc1ccc(N2C(=O)/C(=C\c3ccco3)N=C2SCC(=O)NC(C)(C)C)cc1Cl`, the Potency was inconclusive [inhibitor, single point]. For `Cn1c(CCc2ccc(N)cc2)nc2ccccc21`, the Potency was inconclusive [inhibitor, single point]. With `CC(=O)Oc1ccc2ccccc2c1C(NC(=O)Cc1ccccc1)c1ccc(Cl)cc1` (centres undefined) the Potency was inconclusive [inhibitor, single point]. With `COc1cc(OC)cc(-c2nc3ccccc3c(=O)n2OC(=O)c2ccc(C)c(C)c2)c1` the Potency was inconclusive [inhibitor, single point]. In the case of `Cc1cc(C)cc(OCC(=O)Nc2ccncc2)c1`, the Potency is reported as inconclusive [inhibitor, partial curve]. For `Cc1csc(NC(=O)CSc2nncc(=O)n2N)n1`, the Potency was inconclusive [activator, single point]. With `Cc1cc(C)c(C)c(S(=O)(=O)ON2C(=O)c3ccccc3C2=O)c1C` the Potency was active: 12.6 µM. For `CCCn1c(C(O)c2ccc(OC)c(OC)c2)nc2ccccc21` (centres undefined), the Potency was inconclusive [inhibitor, single point]. For `Cc1ccc2[nH]c(C(=O)N/N=C/c3ccccc3O)c(C)c2c1`, the Potency was active: 6.31 µM. With `COc1ccc(N=Cc2cc3c(cc2O)OC(N)=C(C#N)C3c2ccccc2)cc1` (centres undefined) the Potency was inconclusive [inhibitor, single point]. For `COc1ccc(C2CC(c3cccs3)=NN2C(=O)CCl)cc1OC` (centres undefined), the Potency was inconclusive [inhibitor, single point]. With `CCOC(=O)N1CCc2c(sc(NC(=O)Cc3ccccc3)c2C(=O)c2ccc(OC)cc2)C1` the “activity, negative = inhibition” value was inactive: -5.79%. For `CCOC(=O)N1CCN(CC(=O)Nc2cccc(Br)c2)CC1`, the “activity, negative = inhibition” value was inactive: -0.316%. With `NC(=O)CCCc1nc(-c2ccccc2Cl)no1` the Potency was inconclusive [inhibitor, partial curve, poor fit]. With `COc1ccc(-c2noc(C3CCCN(C(=O)c4ccccc4)C3)n2)cc1` (centres undefined) the “activity, negative = inhibition” value was inactive: -1.13%. With `C=CCn1c(SCC(=O)N2CCOCC2)nnc1C(C)NC(=O)c1ccccc1` (centres undefined) the “activity, negative = inhibition” value was inactive: -1.14%. With `CN=c1scc(C)n1/N=C/c1ccc(O)c(O)c1O` the Potency was active: 7.08 µM. With `COc1cc(/C=N/Nc2nc3ccccc3[nH]2)cc(Br)c1OCC(=O)N(C)C` the Potency was inconclusive [inhibitor, single point]. In the case of `CCOC(=O)/C(C(N)=NCc1ccco1)=C(/O)c1ccccc1`, the Potency is reported as inconclusive [inhibitor, single point]. For `O=C1c2c(Br)c(Br)c(Br)c(Br)c2C(=O)N1c1ccccn1`, the Potency was inconclusive [inhibitor, single point]. With `O=C(CCNS(=O)(=O)c1ccc(OC(F)(F)F)cc1)N1CCN(C/C=C/c2ccccc2)CC1` the Potency was inconclusive [inhibitor, single point]. In the case of `c1ccc(Cn2c(CN3CCCC3)nc3ccccc32)cc1`, the Potency is reported as inconclusive [inhibitor, single point]. With `S=C(Nc1ccccc1)N1CCn2c1nc1ccccc12` the Potency was active: 5.01 µM. For `CCNc1nc(NCC)nc(N(C)/N=C/c2ccco2)n1`, the Potency was active: 20 µM. For `CCc1ccccc1NC(=S)Nc1cc(OC)c(NC(=O)C(C)C)cc1OC`, the Potency was inconclusive [inhibitor, single point]. In the case of `O=C(COC(=O)c1ccccc1O)NCCCc1ccccc1`, the “activity, negative = inhibition” value is reported as inactive: -14.8%. For `Cc1sc2nc(CN(C(=O)NC3CCCCC3)C3CCCC3)[nH]c(=O)c2c1C`, the Potency was active: 14.1 µM. With `Cc1cc(C)n(CC(C)NCc2cn[nH]c2-c2cccc3ccccc23)n1` (centres undefined) the “activity, negative = inhibition” value was inactive: 0.537%. For `CCOc1cc(/C=N/Nc2nc(Nc3ccccc3)nc(N3CCCCC3)n2)ccc1OCC(=O)O`, the Potency was inconclusive [inhibitor, single point]. With `Cc1ccc(-c2noc(C3CCCN(C(=O)c4c(F)cccc4F)C3)n2)cc1` (centres undefined) the Potency was inconclusive [inhibitor, single point]. In the case of `CCOc1ccccc1NC(=O)c1ccc(C(=O)Nc2ccccc2OCC)nc1`, the Potency is reported as inconclusive [inhibitor, full curve, poor fit]. For `Oc1ccc(-c2onc(C(F)(F)F)c2-c2cscn2)c(O)c1`, the “activity, negative = inhibition” value was inactive: -19.8%. For `O=C(N/N=C/C(Br)=C/c1ccccc1)C(O)c1ccccc1` (centres undefined), the Potency was inconclusive [activator, partial curve]. In the case of `N#Cc1ccc(C(=O)Nn2cnnc2)cc1`, the “activity, negative = inhibition” value is reported as inactive: 2.28%. For `CCOC(=O)C1=C(C(F)(F)F)Nc2ncnn2C1c1cc(OC)ccc1OC` (centres undefined), the “activity, negative = inhibition” value was inactive: 5.85%. In the case of `O=C(C1CCN(Cc2ccccc2)CC1)N1CCN(C/C=C/c2ccccc2)CC1`, the “activity, negative = inhibition” value is reported as inactive: 9.14%. For `CCOc1ccc(NC(=S)NCc2ccc3c(c2)OCO3)cc1`, the Potency was inconclusive [inhibitor, single point]. For `CCOC(=O)N1CCC(N(CCN(C)C)C(=S)Nc2cccc(OC)c2)CC1`, the “activity, negative = inhibition” value was inactive: 0.0607%. For `CN(Cc1cccs1)C(=O)CNC(=O)c1ccco1`, the “activity, negative = inhibition” value was inactive: 18%.
